The list shows a part of the results.
How the values were obtained:
HSkMC = human skeletal muscle cells; assay: cytotoxicity call (relative viability < 0.9); details: 10 µM
HepG2 = assay: cytotoxicity call (relative viability < 0.9); details: 10 µM
S. aureus RN4220 = assay: growth inhibition call (relative growth <= 0.2); details: 50 µM

Compound	cytotoxicity call (HSkMC)	cytotoxicity call (HepG2)	growth inhibition call (S. aureus RN4220)
C[C@@H]1CN([C@@H](C)CO)C(=O)c2cc(NC(=O)Nc3ccc4c(c3)OCO4)ccc2O[C@@H](C)CCCCO[C@@H]1CN(C)Cc1ccc(C(=O)O)cc1	inactive	inactive	inactive
C[C@H]1CN([C@@H](C)CO)C(=O)Cc2cc(NC(=O)NC3CCCCC3)ccc2O[C@@H]1CN(C)Cc1ccc(-c2ccccc2)cc1	inactive	inactive	inactive
COc1ccc(NC(=O)Nc2ccc3c(c2)C(=O)N([C@@H](C)CO)C[C@H](C)[C@@H](CN(C)Cc2ccc4c(c2)OCO4)OCCCC[C@H](C)O3)cc1	inactive	inactive	inactive
C[C@@H]1CN([C@H](C)CO)C(=O)c2cc(NC(=O)Cc3ccccc3)ccc2O[C@@H](C)CCCCO[C@H]1CN(C)C(=O)Cc1ccccc1	inactive	inactive	inactive
C[C@@H]1CN([C@@H](C)CO)C(=O)c2cc(NC(=O)CCCN(C)C)ccc2O[C@@H](C)CCCCO[C@@H]1CN(C)CC1CCCCC1	inactive	inactive	inactive
O=C(CS)NCCCCCCNC(=O)[C@@H]1C[C@@H]2C(=O)NCC(=O)N2[C@@H]1c1cccc(OCCO)c1	inactive	inactive	inactive
C[C@@H]1CCCCO[C@H](CN(C)Cc2ccccc2)[C@H](C)CN([C@@H](C)CO)C(=O)c2cc(NC(=O)Nc3ccc(C(F)(F)F)cc3)ccc2O1	active	active	inactive
O=C(O)/C=C\C(=O)NCc1cccnc1	inactive	inactive	inactive
C[C@H]1CN([C@@H](C)CO)C(=O)Cc2cc(NC(=O)Cc3ccccc3)ccc2O[C@H]1CN(C)C(=O)Nc1cccc2ccccc12	inactive	inactive	inactive
C[C@@H]1CN([C@H](C)CO)S(=O)(=O)c2ccc(C#Cc3ccccc3F)cc2O[C@@H]1CN(C)CC1CCOCC1	inactive	inactive	inactive
COc1cccc(S(=O)(=O)N(C)C[C@H]2OCc3cnnn3CCCC(=O)N([C@@H](C)CO)C[C@H]2C)c1	inactive	inactive	inactive
C[C@H](CO)N1C[C@H](C)[C@H](CN(C)S(=O)(=O)c2cccs2)Oc2ccc(NS(=O)(=O)c3cn(C)cn3)cc2CC1=O	inactive	inactive	inactive
COc1ccc(NC(=O)Nc2ccc3c(c2)C(=O)N([C@@H](C)CO)C[C@H](C)[C@@H](CN(C)CC2CCCCC2)O3)cc1	inactive	inactive	inactive
O=C(CCCCCCC(=O)Nc1ccc([C@H]2O[C@@H](CSc3nc(-c4ccccc4)c(-c4ccccc4)o3)C[C@@H](c3ccc(CO)cc3)O2)cc1)NO	inactive	inactive	inactive
O=C1CCCN1C[C@H]1CCCNC1	inactive	inactive	inactive
Cc1ccc[nH]c1=O	inactive	inactive	inactive
NC(=O)NCC#Cc1ccc2c(c1)[C@]1(C(=O)N2)[C@H](c2ccccc2OCCO)N2[C@H](c3ccccc3)[C@H](c3ccccc3)OC(=O)[C@H]2[C@@H]1C(=O)Nc1nc2ccccc2s1	inactive	inactive	inactive
C[C@@H]1CN([C@H](C)CO)C(=O)c2cc(NC(=O)c3ccccc3)ccc2O[C@@H](C)CCCCO[C@@H]1CN(C)S(=O)(=O)c1ccc(F)cc1	inactive	inactive	inactive
OC[C@H]1O[C@H](O[C@H]2[C@H](O)[C@@H](O)[C@H](O)O[C@@H]2CO)[C@H](O)[C@@H](O)[C@@H]1O	inactive	inactive	inactive
CC(C)CC#Cc1cnc2c(c1)C(=O)N([C@H](C)CO)C[C@H](C)[C@@H](CN(C)C(=O)CN1CCOCC1)O2	inactive	inactive	inactive
O=C(N[C@H]1CC[C@H](CC(=O)N2CCOCC2)O[C@H]1CO)c1ccc2c(c1)OCO2	inactive	inactive	inactive
Nc1ncnc2c1ncn2C1OC(CO)C(O)C1O (stereo not drawn)	inactive	inactive	inactive
CN1CCC(OC(c2ccccc2)c2ccccc2)CC1.Cl	inactive	inactive	inactive
C[C@@H]1CCCCO[C@H](CN(C)Cc2ccncc2)[C@H](C)CN([C@H](C)CO)C(=O)c2cc(NS(C)(=O)=O)ccc2O1	inactive	inactive	inactive
Cn1cnc(S(=O)(=O)N[C@@H]2CC[C@H](CC(=O)N3CCN(c4ccccc4)CC3)O[C@H]2CO)c1	inactive	inactive	inactive
C[C@H](CO)N1C[C@H](C)[C@H](CN(C)S(C)(=O)=O)Oc2ccc(NC(=O)Cc3ccccc3)cc2C1=O	inactive	inactive	inactive

Reference: the antibiotic and cytotoxicity screens of Wong et al. (2023)
